Test results taken from PubChem BioAssay AID2147 (National Center for Advancing Translational Sciences (NCATS), 2009).
Hit rate of the full screen: of about 230,000 compounds, about 3,600 (1.6%) were called active. This list was built around the results that the source calls inconclusive (neither active nor inactive); the mix of calls is not that of the screen. Calls follow the shape of the dose curve; as a rule, active = well fitted inhibition curve with a large enough effect (not every such curve was filed as active); inconclusive = small, poorly fitted or top-dose-only effect, or another doubt; inactive = no such curve, though single readings can be large or run the other way. Potencies of inconclusive entries are doubtful fits and often do not repeat.

target: Lysine-specific demethylase 4E (Homo sapiens) (UniProt B2RXH2); experiment: qHTS Assay for Inhibitors of Human Jumonji Domain Containing 2E (JMJD2E); conditions: JMJD2E catalytic domain, FDH-coupled NADH fluorescence (FDH is formaldehyde dehydrogenase); series mostly up to 57.1 µM
Sequence of UniProt B2RXH2 (B2RXH2 whole entry, looked up, the tested form may be a part): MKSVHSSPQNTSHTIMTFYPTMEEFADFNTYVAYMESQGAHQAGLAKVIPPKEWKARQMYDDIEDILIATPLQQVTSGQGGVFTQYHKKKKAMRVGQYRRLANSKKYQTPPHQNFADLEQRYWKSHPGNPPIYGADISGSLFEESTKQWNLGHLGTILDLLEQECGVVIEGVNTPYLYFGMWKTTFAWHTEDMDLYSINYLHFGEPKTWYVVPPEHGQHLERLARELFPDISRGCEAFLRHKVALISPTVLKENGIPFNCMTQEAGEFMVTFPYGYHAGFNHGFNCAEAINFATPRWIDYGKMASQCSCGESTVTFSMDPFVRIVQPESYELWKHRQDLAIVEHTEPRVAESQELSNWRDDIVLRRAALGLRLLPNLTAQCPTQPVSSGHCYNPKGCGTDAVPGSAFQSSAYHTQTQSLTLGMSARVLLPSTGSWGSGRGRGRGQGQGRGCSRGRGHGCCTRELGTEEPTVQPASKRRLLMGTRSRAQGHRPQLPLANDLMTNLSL
Also: nearly all actives have a fitted effect of over 50% in size.
Potency is read from the fitted curve at half-maximal effect; tags tell the direction and shape of the fitted curve.

| SMILES | Potency |
| --- | --- |
| Cc1ccc(C(=O)NNC(=S)NC(=O)c2ccc(Cl)cc2Cl)cc1 | inconclusive: 39.8 µM [inhibitor, single point] |
| CCN(CC)CCn1c(-c2ccccc2)nc2c(N3CCOCC3)nc(C)nc21 | inconclusive: 28.2 µM [inhibitor, partial curve] |
| Nc1c2nc(-c3ccccc3)[nH]c(=O)c2nc(=O)n1-c1ccccc1 | inconclusive: 28.2 µM [inhibitor, partial curve] |
| COc1ccccc1NS(=O)(=O)c1cc(C(=O)NCCC(C)C)ccc1F | inactive |
| Cc1ccccc1C(=O)NCc1nnc(SCC(=O)N2c3ccccc3Sc3ccccc32)n1C | inactive |
| CCc1c(C)c(C#N)c2[nH]c3ccccc3n2c1=S | inconclusive: 11.2 µM [inhibitor, partial curve] |
| c1ccc(-c2nc3nc4ccccc4nc3n2CC2CCCO2)cc1 (stereo not given) | inconclusive: 28.2 µM [inhibitor, partial curve] |
| COC(=O)c1ccc(C(/C=C/[C@@H](C)C(=O)NCCc2c[nH]c3ccccc23)NC(=O)OCc2ccccc2)cc1 (stereo not given in full) | inactive |
| CC(C)OCCCn1c(NN)nc2ccccc2c1=O | inconclusive: 20 µM [inhibitor, partial curve] |
| O=C(O)c1cc(NCc2cccs2)ccc1N1CCOCC1 | inconclusive: 39.8 µM [inhibitor, single point] |
| O=C(N/N=C/c1ccc([N+](=O)[O-])o1)c1ccccc1NS(=O)(=O)c1cccs1 | inactive |
| O=c1cc(-c2ccccc2)[nH]c2ccc(F)cc12 | inconclusive: 35.5 µM [inhibitor, single point] |
| Cc1cccn2c(=O)c3cc(C(=O)NCc4ccco4)c(=N)n(C(C)C)c3nc12 | inconclusive: 7.08 µM [inhibitor, partial curve] |
| N#C/C(=C\c1ccc(N2CCOCC2)o1)C(=O)NC1CCCCC1 | inactive |
| NC(=S)N/N=C/c1ccccc1O | inconclusive: 28.2 µM [inhibitor, partial curve] |
| NNC(=O)c1cc2c(N3CCC(Cc4ccccc4)CC3)ncnc2s1 | inconclusive: 31.6 µM [inhibitor, partial curve] |
| CCCC(=O)Nc1ccc2oc(-c3cccnc3)nc2c1 | inconclusive: 31.6 µM [inhibitor, partial curve] |
| O=C1C2C3C=CC(C2C(=O)N1CCCO)C1C2C(=O)N(CCCO)C(=O)C2C31 (stereo not given) | inactive |
| Cc1ccccc1OCC(=O)O/N=C(\N)Cc1cccs1 | inconclusive: 0.005 µM [inhibitor, full curve, poor fit] |
| O=C(O)c1cccc(NC2=Nc3cccc4cccc2c34)c1 | inconclusive: 28.2 µM [inhibitor, partial curve] |
| C=CCOC(=O)Nc1c(C(=O)OC)[nH]c2ccccc12 | inconclusive: 39.8 µM [inhibitor, single point] |
| C=CCN=c1scc(-c2ccc(F)cc2)n1/N=C/c1ccccn1 | inactive |
| Fc1ccccc1CSc1ccc(-c2ccco2)nn1 | inconclusive: 25.1 µM [inhibitor, single point] |
| O=C(O)c1[nH]c2ccccc2c1-c1ccccc1 | inconclusive: 22.4 µM [inhibitor, partial curve] |
| O=C(CN1CCN(c2ccc(F)cc2)CC1)N1CCC(Cc2ccccc2)CC1 | inconclusive: 28.2 µM [inhibitor, single point] |

| SMILES | Potency |
| --- | --- |
| COc1ccc2nc(N3CCC(O)CC3)c(C#N)cc2c1 | inconclusive: 28.2 µM [inhibitor, partial curve] |
| CCOc1ccc(N=C(/C(C(=O)C(=O)N2CCOCC2)=C(\O)c2ccccc2)c2ccccc2)cc1 | inactive |
| Clc1ccc(-n2cnnn2)cc1 | inactive |
| Cc1ccc(-c2cc(C(=O)Nc3nccs3)c3ccccc3n2)o1 | inconclusive: 31.6 µM [inhibitor, partial curve] |
| O=C(CSc1cccc[n+]1[O-])NN(c1ccccc1)c1ccccc1 | inactive |
| CCC(=O)N1COC[C@@H]1Cc1ccccc1 | inactive |
| Cc1c(-c2ccccc2)oc2c(C(=O)OCCN3CCCCC3)cccc2c1=O | inconclusive: 15.8 µM [inhibitor, single point] |
| CCOC(=O)C1CCN(C2CC(=O)N(c3ccc(OCC)cc3)C2=O)CC1 (stereo not given) | inactive |
| CCc1cc2cc3c(cc2nc1SCC(=O)N1CCN(C(=O)c2ccco2)CC1)OCO3 | inactive |
| CC1(C)Cc2c(C#N)c(SCc3ccccc3)nc(N3CCOCC3)c2CO1 | inconclusive: 35.5 µM [inhibitor, single point] |
| COC(=O)c1sc2nc(C)nc(SCC(=O)N3CCC(C(=O)O)CC3)c2c1C | inconclusive: 35.5 µM [inhibitor, single point] |
| Cc1cc(C)n2cc(CSc3nnc(N)s3)nc2n1 | inconclusive: 25.1 µM [inhibitor, single point] |
| COc1c2c(c(C(=O)/C=C/C(C)=C/c3ccccc3)c3c1OCO3)CCN(C)C2 | inactive |
| O=c1cc(-c2ccc(Cl)cc2)oc(=O)[nH]1 | inactive |
| O=C(NCc1cccs1)c1cnc2sccn2c1=O | inconclusive: 25.1 µM [inhibitor, single point] |
| COC(CNC(=O)c1ccc2c(c1)ncn2-c1cccc(F)c1)OC | inactive |
| Cc1ccc(S(=O)(=O)N2CCCCC2C(=O)NCc2ccco2)cc1 (stereo not given) | inactive |
| CC1(C)CC(=O)c2c(nn(-c3ccccc3)c2-c2ccncc2)C1 | inactive |
| N#C/C(=C\c1cccnc1)c1nc2c(s1)CCCC2 | inconclusive: 15.8 µM [inhibitor, partial curve] |
| Cc1ccc(Cn2c(=N)n(CC(=O)c3ccccc3)c3ccccc32)cc1 | inconclusive: 39.8 µM [inhibitor, single point] |
| C/C=C/C(=O)OCC(=O)Nc1ccc(OC)c(Cl)c1 | inactive |
| COc1ccc(OC)c(/C=N/NC(=O)C(=O)NCc2cccnc2)c1 | inconclusive: 25.1 µM [inhibitor, partial curve] |
| CCN1CCN(c2ncnc3c2c(-c2ccccc2)cn3-c2ccc(F)cc2)CC1 | inconclusive: 39.8 µM [inhibitor, single point] |
| Cn1ncc(Cl)c1C(=O)Nc1cccc(Cl)c1 | inactive |
| COc1ccc(NC(=O)c2cc3c(s2)CCC3)cc1S(=O)(=O)N1CCOCC1 | inactive |

| SMILES | Potency |
| --- | --- |
| C(=C\c1ccccc1)/CN1CCN(c2ncnc3c2oc2ccccc23)CC1 | inconclusive: 39.8 µM [inhibitor, single point] |
| COC(=O)c1ccc(Nc2cc(C)nc(-c3ccccc3O)n2)cc1 | inactive |
| CCCN1CCN(CCCNC(=S)Nc2ccc3nc(N4CCN(CC)CC4)cc(C)c3c2)CC1 | inconclusive: 28.2 µM [inhibitor, partial curve] |
| COc1ccccc1NC(=O)NCC(=O)Nc1c(C)cccc1C | inactive |
| O=C(Nc1ccc2oc(-c3ccncc3)nc2c1)c1ccc(F)cc1 | inconclusive: 25.1 µM [inhibitor, partial curve] |
| CCOC(=O)COc1ccc(S(=O)(=O)N2CCN(c3ccccc3F)CC2)cc1 | inactive |
| CC1=C(C(=O)Nc2ccccn2)C(c2ccc(Cl)cc2)NC(=S)N1 (stereo not given) | inconclusive: 35.5 µM [inhibitor, single point] |
| COc1ccccc1N1CCN(C(=O)c2coc(=O)c(Br)c2)CC1 | inconclusive: 31.6 µM [inhibitor, partial curve] |
| CCOc1ccc(C(=O)N2CCCCCC2)cc1 | inactive |
| Cc1ccc(-c2nn(C(C)(C)C)c3ncnc(N)c23)cc1 | inconclusive: 28.2 µM [inhibitor, single point] |
| c1csc(-c2nnc(NC3CCCCC3)c3ccccc23)c1 | inconclusive: 35.5 µM [inhibitor, single point] |
| Cc1ccccc1NC(=O)CN1C(=O)N/C(=C\c2cccn2-c2cccc(C(=O)O)c2)C1=O | inconclusive: 28.2 µM [inhibitor, single point] |
| Cc1oc2cc(O)ccc2c(=O)c1-c1ccccc1 | inconclusive: 31.6 µM [inhibitor, partial curve] |
| COc1cc([N+](=O)[O-])cc(/C=N/NC(=O)c2cncc(Br)c2)c1O | active: 14.1 µM |
| CC(C)Cn1c(/C=C/c2ccccc2)nc2ccccc21 | inconclusive: 31.6 µM [inhibitor, partial curve] |
| COc1ccc(C(=O)N/N=C/c2cc(Br)ccc2O)cc1OC | inconclusive: 25.1 µM [inhibitor, single point] |
| CC(C)(C)SCCNC(=O)CSCc1ccc([N+](=O)[O-])cc1 | inactive |
| O=C(Nc1ccc(Cl)cc1F)c1cc(S(=O)(=O)N2CCCCC2)ccc1F | inconclusive: 28.2 µM [inhibitor, single point] |
| COc1c(F)c(F)c(C(=O)Nc2ccc(NC(=O)Cc3ccccc3)cc2)c(F)c1F | inconclusive: 39.8 µM [inhibitor, single point] |
| CC(C)C(=O)c1cc2c(cc1NC(=O)Nc1cccc3ccccc13)OCCO2 | inconclusive: 3.98 µM [inhibitor, single point] |
| Cc1cc2cc(C(c3nnnn3Cc3ccco3)N3CCCCC3)c(=O)[nH]c2cc1C (stereo not given) | inactive |
| O=C(Nc1ccc(S(=O)(=O)Nc2ncccn2)cc1)c1ccccc1NS(=O)(=O)c1ccc(F)cc1 | inconclusive: 28.2 µM [inhibitor, partial curve] |
| CCCCCc1ccc(-c2nnc(N)s2)cc1 | inconclusive: 31.6 µM [inhibitor, single point] |
| CCCNS(=O)(=O)c1cccn1-c1ncc(C(F)(F)F)cc1Cl | inactive |
| COc1ccc(C(=O)Nc2ccccc2C(=O)N/N=C/c2ccc(O)c(OC)c2)cc1 | inconclusive: 39.8 µM [inhibitor, single point] |
